Laboratory results reported in PubChem BioAssay AID1963576 (National Center for Advancing Translational Sciences (NCATS), 2024).
Out of some 46,000 compounds screened, about 60 (0.1%) were called active. Not shown: some 3% with an inconclusive outcome. The call rests on the fitted dose curve; in most records, active means well fitted inhibition curve with a large enough effect; inconclusive means small, poorly fitted or top-dose-only effect; inactive means no such curve, though single readings can be large or run the other way. This is one part of the list.

Experiment: Primary qHTS assay for Inhibitors of ovarian cancer metastasis using an organotypic tumor microenvironment (TME) model. Further: nearly all actives have a fitted effect of over 65% in size.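 On activity change, negative = inhibition: plate controls were DMSO wells for no effect and tomatine positive control wells for full effect.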
Settings: SKOV3ip1-GFP adhesion/invasion on 3D omental model, fluorescence; series mostly up to 45.8 µM; activity change, negative = inhibition: at the top concentration
Outline: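 qHTS, 4-pt dose (0.36-46 umol/L); SKOV3ip1-GFP, 1,200 cells/well, no FBS; primary omental fibroblast/mesothelial co-culture 48 h pre-grown; 2 h RT + 16 h 37 C; PBS wash, 4% PFA; GFP count 488/509 nm.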

outcome, inactive:
COc1ccccc1NC(=O)c1c(NC(=O)Cc2ccccc2)sc2c1CCC(C(C)(C)C)C2 (stereo unspecified)
COc1ccc(-c2cc(C(C)=O)c(C)n2CCC(=O)Nc2ccc(C(F)(F)F)cc2)cc1
Nc1nonc1C(=O)NCCNCc1ccc(Cl)c(Cl)c1
Cc1ccccc1-c1nc(CS(=O)(=O)CC(=O)Nc2cc(Cl)cc(Cl)c2)c(C)o1
CCOc1ccc(C(=O)NCCn2cc(SCC(=O)Nc3ccccc3)c3ccccc32)cc1
O=C(NCc1ccccc1Cl)c1cc(=O)[nH]c2ccc(S(=O)(=O)N3CCCCC3)cc12
CCC1CCCCN1C(=O)c1nn(-c2ccc(OC)cc2)c(=O)c2c1c1ccccc1n2C (stereo unspecified)
COc1ccccc1NC(=O)CCS(=O)(=O)c1cc2c3c(c1)CCN3C(=O)CC2

Activity change, negative = inhibition, inactive:
CCc1ccc(CNC(=O)Cn2c(-c3cccs3)cc3cc(F)ccc32)cc1 18.2%
O=C(Nc1cnc(N2CCC(N3CCCCC3)CC2)c(C(=O)O)c1)c1ccc(Br)cc1 3.66%
Cc1ccc(CSc2nc3ccc(NC(=O)COc4ccc(F)cc4)cc3s2)cc1 4.14%
CCn1nc(C)c(CCN(C)C(=O)Nc2cc(C)cc(C)c2)c1C 6.91%
Cc1cc(C)nc(-n2nc(C)c3c2NC(=O)CC3c2cc(F)ccc2F)n1 (stereo unspecified) 6.35%
CCn1ccc2c(OCC(=O)NCc3ccc(C)cc3)cccc2c1=O 3.91%
COc1ccccc1NC(=O)Cn1c(=O)n(Cc2ccccc2)c(=O)c2c3c(sc21)CN(C(C)=O)CC3 8.83%
Cc1ccc(NC(=O)c2cc3c([nH]c2=O)CC(C)(C)CC3=O)c(C)c1 8.88%
COc1ccc(CNC(=O)CSc2n[nH]c(-c3ccc(OC)cc3)n2)cc1 -1.33%
CC(C)Sc1ncc(Cl)c(C(=O)Nc2ccc(S(=O)(=O)Nc3ncccn3)cc2)n1 -14.6%
Cn1c(=O)cc(SCC(=O)N2CCN(c3ccccc3F)CC2)c2cc(Cl)ccc21 -18.2%
CC(C)c1ccc2c(c1)-c1ccccc1S(=O)(=O)N2CC(=O)N1CCCCC1 -6.21%
O=C(CSc1ncc(-c2ccccc2)[nH]1)Nc1cccc(C(F)(F)F)c1 -17.3%
Cc1cc(Cl)ccc1OCC(=O)Nc1c(C(=O)c2ccccc2)oc2ccccc12 5.93%
Cc1ccc(-n2c(SCC(=O)NCc3ccccc3)nc3c([nH]c4ccccc43)c2=O)cc1 -8.84%
COc1cc(CN(C(=O)c2cccc(C)c2)c2ccccn2)cc(OC)c1OC -9.03%
COC(=O)c1cc(NC(=O)c2sc3ncn(Cc4cccc(F)c4)c(=O)c3c2C)cc(C(=O)OC)c1 8.4%
Cc1ccccc1CCNC(=O)C1CCN(c2nc3ccccc3nc2C(F)(F)F)CC1 4.92%
